Results reported in PubChem BioAssay AID1345083 (National Center for Advancing Translational Sciences (NCATS), 2018).
The campaign covered roughly 94,000 compounds. About 6,200 (6.6%) were called active. This list was built around the results that the source calls inconclusive (neither active nor inactive); the mix of calls is not that of the screen. Calls follow the shape of the dose curve; as a rule, active = well fitted inhibition curve with a large enough effect; inconclusive = small, poorly fitted or top-dose-only effect; inactive = flat fitted curve, though single readings scatter. Potencies of inconclusive entries are doubtful fits and often do not repeat.

Experiment: Cytotoxic Profiling in HEK 293 Cell Line of Diverse Libraries Using Quantitative High-Throughput Screening; also: nearly all actives have a fitted effect of over 60% in size
Conditions: HEK 293 viability, ATP luminescence (CellTiter-Glo), 48-72 h; activity change, negative = cytotoxicity: at 115 µM (top of the series) unless noted; series mostly up to 115 µM
Method in brief: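 Read-out: CellTiter-Glo ATP luminescence. Cells: HEK 293, 250 cells/well. Exposure: 48 or 72 hr, 37 degree Celsius.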
% is scaled to controls: 0 for no effect and ±100 for the full control effect; potency is read from the fitted curve at half-maximal effect; tags tell the direction and shape of the fitted curve.

| SMILES | Potency | activity change, negative = cytotoxicity | outcome |
| --- | --- | --- | --- |
| O=C(c1ccccc1)N1CCc2nc(-c3ccccc3)nc(-c3ccc(Cl)cc3)c2C1 | inconclusive: 50.1 µM [inhibitor, partial curve] | – | – |
| CCOc1ccccc1CNC(=O)c1c(C)noc1-c1cccs1 | inconclusive: 50.1 µM [inhibitor, partial curve, poor fit] | – | – |
| COc1ccc(CN2Cc3[nH]nc(-c4cccc(NC(C)=O)c4)c3CC2=O)cc1 | inconclusive: 112 µM [inhibitor, partial curve, poor fit] | – | – |
| COCC1CN(Cc2cnn(C(C)C)c2)CC12CCNCC2 (stereo unspecified) | – | inactive: -1.54% | – |
| COc1ccc2c(c1)CCN=C2C[C@H]1CN(C(=O)Cc2cccs2)CC[C@H]1CC(=O)O | – | inactive: -27.1% [at 172 µM] | – |
| COc1ccc(C2(C(=O)NCc3cccc(F)c3)CCOCC2)cc1 | – | inactive: -2.09% [at 172 µM] | – |
| Cc1cccc(C)c1NC(=O)Cn1c(C)cc2nc3n(c(=O)c21)CCCCC3 | – | inactive: 7.65% | – |
| Cn1ncc2c(C(=O)NCC3CC3)cc(-c3ccsc3)nc21 | inconclusive: 79.4 µM [inhibitor, partial curve, poor fit] | – | – |
| O=C(Cc1cccc(F)c1)N1CCCCCC1c1nnc(-c2ccccc2)o1 (stereo unspecified) | inconclusive: 79.4 µM [inhibitor, partial curve] | – | – |
| CC(=O)N1CCOc2ccc(CCC(=O)N3CCN(C4CCCCC4)CC3)cc2C1 | inconclusive: 89.1 µM [inhibitor, single point] | – | – |
| Cc1ccccc1C(=O)NC1CN(c2ccnc3ccnn23)C1 | – | inactive: -31% | – |
| O=[S+]1([O-])NCC2(CCN(Cc3ccccc3C(F)(F)F)CC2)Nc2ccccc21 | inconclusive: 89.1 µM [inhibitor, single point] | – | – |
| Cc1ccc(C(=O)NC2CCN(c3nccc(Nc4ccccc4Cl)n3)CC2)cc1 | – | inactive: 1.33% | – |
| CCn1ccc(C(=O)N2CCCn3cc(-c4cccc(C#N)c4)nc32)n1 | inconclusive: 31.6 µM [inhibitor, partial curve] | – | – |
| COc1ccc(Nc2ccnc(N3CCCC(C(=O)N4CCOCC4)C3)n2)cc1 (stereo unspecified) | inconclusive: 79.4 µM [inhibitor, single point] | – | – |
| COCCN1C(=O)CCc2cc(NC(=O)c3ccc(F)cc3)ccc21 | inconclusive: 44.7 µM [inhibitor, partial curve, poor fit] | – | – |
| COc1ccc(-c2ccnc3nc(-c4ccccc4OC)nn23)c(F)c1 | inconclusive: 28.2 µM [inhibitor, partial curve, poor fit] | – | – |
| Cc1nc2scc(CC(=O)NCc3ccco3)n2c(=O)c1-c1cc(C)n(-c2cc(F)ccc2F)n1 | inconclusive: 79.4 µM [inhibitor, partial curve] | – | – |
| Cn1ncc2c(C(=O)N3CCC(c4ccccc4)CC3)cc(-c3ccc(C(F)(F)F)cc3)nc21 | inconclusive: 79.4 µM [inhibitor, partial curve, poor fit] | – | – |
| CC(C)C(=O)NC1CCCc2c1[nH]c1c(Cl)cccc21 (stereo unspecified) | inconclusive: 11.2 µM [inhibitor, partial curve, poor fit] | – | – |
| Cc1ccc2nc(-c3ccc(F)cc3)c(CN3CCCC(C(N)=O)C3)cc2c1 (stereo unspecified) | inconclusive: 79.4 µM [inhibitor, partial curve, poor fit] | – | – |
| CN1C[C@@H]2CC[C@H](CC1=O)N2Cc1ccc(S(C)(=O)=O)cc1 | – | inactive: -0.967% | – |

| SMILES | Potency | activity change, negative = cytotoxicity | outcome |
| --- | --- | --- | --- |
| O=C(Nc1ccccc1CCc1ccccn1)C1CCN(c2cnn(Cc3ccccc3)c(=O)c2)C1 (stereo unspecified) | inconclusive: 56.2 µM [inhibitor, partial curve, poor fit] | – | – |
| CNCCN1C(=O)CC[C@H]2CN(C(=O)c3cnc4nc(C)[nH]n4c3=O)CC[C@H]21 | inconclusive: 56.2 µM [inhibitor, partial curve, poor fit] | – | – |
| COc1ccccc1-c1ccc(CN2CCCCC2C(=O)NCC(F)(F)F)cc1 (stereo unspecified) | inconclusive: 17.8 µM [inhibitor, full curve, poor fit] | – | – |
| COCCN1CCCC[C@]2(C[C@H](C(=O)O)[C@H](c3ccco3)N2C(=O)Cc2ccc(F)cc2)C1=O | inconclusive: 89.1 µM [inhibitor, single point] | – | – |
| COCCNC(=O)[C@H]1C[C@H](Oc2cccnc2)CN1C(=O)NC(C)C | – | inactive: -8.27% | – |
| COc1ccc(N2CCN(c3nc(C(=O)NCc4ccc(F)cc4F)cs3)CC2)cc1 | active: 35.5 µM | – | – |
| CN1CCc2c([nH]c3ccccc23)C12CCN(C(=O)c1ccc(Cn3ccnc3)o1)CC2 | active: 89.1 µM | – | – |
| Cc1noc(C)c1CCC(=O)N1CCC(C2CCN(S(C)(=O)=O)CC2)C1 (stereo unspecified) | – | – | inactive |
| CCc1ccc(NC(=O)Cn2ccn3nc4c(c3c2=O)CC(C)CC4)cc1 (stereo unspecified) | active: 44.7 µM | – | – |
| O=C(NC1CCCCCC1)c1nc2sccn2c1-c1ccc(F)cc1 | – | inactive: -34.5% [at 172 µM] | – |
| Cc1cccc2c(C3CCN(S(=O)(=O)c4c(Cl)cccc4Cl)CC3)c[nH]c12 | inconclusive: 8.91 µM [inhibitor, full curve, poor fit] | – | – |
| COc1ccccc1-c1noc(-c2nnn3c2COC(c2ccc(Cl)cc2)C3)n1 (stereo unspecified) | inconclusive: 44.7 µM [inhibitor, partial curve, poor fit] | – | – |
| CCc1nc(-c2ccc(OC3CCN(C(=O)COc4ccc(F)cc4)C3)cc2)no1 (stereo unspecified) | inconclusive: 56.2 µM [inhibitor, partial curve, poor fit] | – | – |
| COc1ccc(-c2cc(N3CCCN(C(=O)c4ccc(C)s4)CC3)n[nH]2)cc1 | active: 39.8 µM | – | – |
| CS(=O)(=O)N1CC2(CCN(Cc3c[nH]c4ccccc34)C2)Cc2ccccc21 (stereo unspecified) | inconclusive: 50.1 µM [inhibitor, partial curve, poor fit] | – | – |
| O=C(Nc1ccc(Cl)cc1)NC1CCN(c2ccc3nnc(C4CC4)n3n2)C1 (stereo unspecified) | inconclusive: 79.4 µM [inhibitor, partial curve, poor fit] | – | – |
| CC(C)N1C(=O)C2(CCCCC2)C1C(=O)NCc1cc(F)cc(F)c1 (stereo unspecified) | – | inactive: -13.5% | – |
| CN1CCN(C(=O)c2ccc(-c3ccc(N4CCSCC4)nc3)cc2)CC1 | inconclusive: 89.1 µM [inhibitor, single point] | – | – |
| Cn1cc(CN2Cc3ccc(C(=O)Nc4nccs4)cc3OCC2=O)cn1 | inconclusive: 79.4 µM [inhibitor, partial curve, poor fit] | – | – |
| Cc1ccc(N2CC(c3noc(-c4cc(Cl)ccc4F)n3)CC2=O)cc1 (stereo unspecified) | – | inactive: -2.57% | – |
| CN(Cc1ccc2nonc2c1)C(=O)C1CCN(C(=O)C2CCCC2)CC1 | inconclusive: 89.1 µM [inhibitor, single point] | – | – |
| O=[S+]([O-])(c1cccs1)N1CCCC2(CC(c3ccccc3)=NO2)C1 (stereo unspecified) | inconclusive: 79.4 µM [inhibitor, partial curve] | – | – |

| SMILES | Potency | activity change, negative = cytotoxicity | outcome |
| --- | --- | --- | --- |
| COCc1cn(C[C@H]2C[C@@H](NC(=O)CC(C)(C)C)[C@H](O)[C@@H]2O)nn1 | – | inactive: -0.148% [at 172 µM] | – |
| O=C(Cc1c[nH]c2ccccc12)NC1CCCc2c1[nH]c1ccc(F)cc21 (stereo unspecified) | active: 35.5 µM | – | – |
| Cc1ccc(CN2CCC3(CC2)CN(C2CCC2)CC3CO)o1 (stereo unspecified) | inconclusive: 50.1 µM [inhibitor, partial curve, poor fit] | – | – |
| COc1ccc(-c2cc(N3CCCC(NC(=O)c4ccsc4)C3)n[nH]2)cc1 (stereo unspecified) | active: 35.5 µM | – | – |
| CCN1c2cc(C(=O)NCc3cccc(OC)c3)ccc2C(=O)N2CCCCCC21 (stereo unspecified) | inconclusive: 56.2 µM [inhibitor, partial curve, poor fit] | – | – |
| Cc1cc(S(=O)(=O)N[C@@H]2CCOC[C@H]2Oc2ccccn2)c(C)s1 | – | – | inactive |
| Cc1cc(N2CCC3(CCCN(C)C3=O)C2)nc(-c2ccccc2O)n1 (stereo unspecified) | inconclusive: 56.2 µM [inhibitor, partial curve, poor fit] | – | – |
| COc1ccccc1OC1CCN(Cc2cc3n(n2)CCNC3)CC1 | – | inactive: -7.63% | – |
| O=C(NCc1cccs1)c1ccc2nc(-c3ccncc3)oc2c1 | – | inactive: -20.4% [at 172 µM] | – |
| COCCNC(=O)c1cc(-c2ccc([S+](C)(=O)[O-])cc2)c2cccn2n1 | inconclusive: 89.1 µM [inhibitor, single point] | – | – |
| COc1cc(-c2nccc3c(=O)cc(N(C)c4ccccc4)oc23)ccn1 | inconclusive: 112 µM [inhibitor, partial curve] | – | – |
| CN(Cc1cccnc1)c1nc2c(c(=O)[nH]1)CCN(Cc1ccccc1Cl)CC2 | inconclusive: 44.7 µM [inhibitor, partial curve, poor fit] | – | – |
| O=C(Cc1cccc(Cl)c1)N1CCC2(CC1)CC(c1cccc(C(F)(F)F)c1)=NO2 | active: 28.2 µM | – | – |
| Cc1noc(-c2cccc(OC3CN(C(=O)c4sccc4C)C3)c2)n1 | inconclusive: 89.1 µM [inhibitor, single point] | – | – |
| CCCn1c(C)cnc1CC1CCN(C(=O)CCC2CCCC2)C1 (stereo unspecified) | – | inactive: -21.5% | – |
| C[C@@H]1C(=O)O[C@H]2[C@H]1CC[C@@]1(C)Cc3sc(NC(=O)COc4ccccc4)nc3[C@@H](C)[C@H]21 | inconclusive: 10 µM [inhibitor, full curve, poor fit] | – | – |
| COC(=O)C1CCN(C(=O)CC[C@H]2CNC(=O)[C@@H]3[C@@H](CCN3C(C)C)N2C)CC1 | – | inactive: -4.65% [at 172 µM] | – |
| Cn1nc(C2CCCC2)cc1NC(=O)Cc1ccc(F)cc1 | inconclusive: 20 µM [inhibitor, partial curve, poor fit] | – | – |
| CC1Oc2ccc(NC(=O)Cc3ccccc3)cc2CN(Cc2ccc(F)cc2)C1=O (stereo unspecified) | active: 44.7 µM | – | – |
| O=C(NCc1ccc(Cl)cc1)c1nc2sccn2c1-c1ccncc1 | inconclusive: 50.1 µM [inhibitor, partial curve, poor fit] | – | – |
| COC[C@@H]1CN(C(=O)c2ccc(OC)nc2)C[C@H]1c1nc(C)no1 | – | inactive: -9.43% | – |
| CN(C)CCN(C)[C@@H]1[C@H](O)[C@H](CO)O[C@@H]1CN(Cc1ccc(Cl)cc1)Cc1cccc(Cl)c1 | inconclusive: 17.8 µM [inhibitor, full curve, poor fit] | – | – |
